The IC50 comes from the fitted curve, where viability falls to half of the control; a limit (>, <) means that the fit lies beyond the doses tested. AUC sums up the same curve from the lowest dose to the 256-fold higher top dose: 1 means no effect, lower means more sensitive. For some of these results: A top dose marked as inferred was calculated from the reported fits. For some of these results: Where an entry number is given, a second screen of the drug exists; the two often differ.
How the values were obtained:
Assay in all cases: Viability of human cancer cell lines after 72 h of drug (GDSC screen)
AUY922 = compound: CCNC(=O)c1noc(-c2cc(C(C)C)c(O)cc2O)c1-c1ccc(CN2CCOCC2)cc1 [AUY922]; details: top dose 0.256 µM; top dose inferred
Method: (§1)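 Human cancer cell lines in 384-well plates, medium with 10% serum, drug for 72 h over a 256-fold dose range (nine 2-fold or five 4-fold steps up to the top dose). Adherent lines were fixed and stained with the nucleic acid dye Syto60, suspension lines read with resazurin; signal relative to control wells, capped at 0 and 100%. One two-parameter sigmoid per drug and line, fitted in a mixed model over all curves with the slope shared within a line.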

LFM-A13 = compound: C/C(O)=C(\C#N)C(=O)Nc1cc(Br)ccc1Br [LFM-A13]; details: top dose 16 µM; top dose inferred
Method: as §1

KIN001-270 = compound: Cc1ccc(Nc2cc(-c3cccc(N4C(=O)c5ccccc5C4=O)c3)ncn2)cc1NS(C)(=O)=O [KIN001-270]; details: top dose 20 µM; top dose inferred
Method: as §1

Gemcitabine = compound: Nc1ccn([C@@H]2O[C@H](CO)[C@@H](O)C2(F)F)c(=O)n1 [Gemcitabine]; details: top dose 1.024 µM
Method: as §1

T0901317 = compound: O=S(=O)(c1ccccc1)N(CC(F)(F)F)c1ccc(C(O)(C(F)(F)F)C(F)(F)F)cc1 [T0901317]; details: top dose 10.24 µM; top dose inferred
Method: as §1

MP470 = compound: S=C(NCc1ccc2c(c1)OCO2)N1CCN(c2ncnc3c2oc2ccccc23)CC1 [MP470]; details: top dose 20 µM; top dose inferred
Method: as §1

Bicalutamide = compound: CC(O)(CS(=O)(=O)c1ccc(F)cc1)C(=O)Nc1ccc(C#N)c(C(F)(F)F)c1 [Bicalutamide]; details: top dose inferred
Method: as §1

TW-37 = compound: CC(C)c1ccccc1Cc1cc(C(=O)Nc2ccc(S(=O)(=O)c3ccccc3C(C)(C)C)cc2)c(O)c(O)c1O [TW-37]; details: top dose 5 µM
Method: as §1

[1] = top dose 1.024 µM, screen: GDSC drug entry 150
[2] = top dose 10 µM, screen: GDSC drug entry 1502

Question: Which results are given for 769-P (kidney, adherent)?
Answer: AUC (AUY922): 0.456; IC50 (AUY922): 12 nM; AUC (LFM-A13): 0.972; IC50 (LFM-A13): > 16 µM; AUC (KIN001-270): 0.968; IC50 (KIN001-270): > 20 µM; AUC (Gemcitabine): 0.079; IC50 (Gemcitabine): < 4 nM; AUC (T0901317): 0.928; IC50 (T0901317): > 10.2 µM; AUC (MP470): 0.909; IC50 (MP470): > 20 µM; AUC (Bicalutamide; [1]): 0.981; IC50 (Bicalutamide; [1]): > 1020 nM; AUC (Bicalutamide; [2]): 0.978; IC50 (Bicalutamide; [2]): > 10000 nM

Question: Which AUC (AUY922) does the source give for VM-CUB-1 (bladder, adherent) here?
Answer: 0.607

Question: What about the IC50 (AUY922) of the same cell line?
Answer: 31.2 nM

Question: And the AUC (LFM-A13)?
Answer: 0.986

Question: What about the IC50 (LFM-A13) of the same cell line?
Answer: > 16 µM

Question: What about the AUC (KIN001-270) of the same cell line?
Answer: 0.961

Question: What about the IC50 (KIN001-270) of the same cell line?
Answer: > 20 µM

Question: And the AUC (Gemcitabine)?
Answer: 0.263

Question: What about the IC50 (Gemcitabine) of the same cell line?
Answer: 13.9 nM

Question: And the AUC (T0901317)?
Answer: 0.98

Question: And the IC50 (T0901317)?
Answer: > 10.2 µM

Question: What about the AUC (MP470) of the same cell line?
Answer: 0.84

Question: What about the IC50 (MP470) of the same cell line?
Answer: 13.1 µM

Question: What about the AUC (TW-37) of the same cell line?
Answer: 0.061

Question: And the IC50 (TW-37)?
Answer: < 19.5 nM

Question: What about the AUC (Bicalutamide; [1]) of the same cell line?
Answer: 0.988

Question: What about the IC50 (Bicalutamide; [1]) of the same cell line?
Answer: > 1020 nM

Question: Which results are given for “SK-MES-1 (lung squamous cell carcinoma, adherent)”?
Answer: AUC (AUY922): 0.415; IC50 (AUY922): 9.17 nM; AUC (LFM-A13): 0.938; IC50 (LFM-A13): > 16 µM; AUC (KIN001-270): 0.981; IC50 (KIN001-270): > 20 µM; AUC (Gemcitabine): 0.132; IC50 (Gemcitabine): < 4 nM; AUC (T0901317): 0.985; IC50 (T0901317): > 10.2 µM; AUC (MP470): 0.893; IC50 (MP470): > 20 µM; AUC (TW-37): 0.681; AUC (Bicalutamide; [1]): 0.984; IC50 (Bicalutamide; [1]): > 1020 nM; AUC (Bicalutamide; [2]): 0.954; IC50 (Bicalutamide; [2]): > 10000 nM

Question: Which results are given for CHSA0011 (chondrosarcoma, adherent)?
Answer: AUC (AUY922): 0.979; IC50 (AUY922): > 256 nM; AUC (LFM-A13): 0.98; IC50 (LFM-A13): > 16 µM; AUC (KIN001-270): 0.976; IC50 (KIN001-270): > 20 µM; AUC (Gemcitabine): 0.978; IC50 (Gemcitabine): > 1020 nM; AUC (T0901317): 0.979; IC50 (T0901317): > 10.2 µM; AUC (MP470): 0.97; IC50 (MP470): > 20 µM; AUC (Bicalutamide; [1]): 0.98; IC50 (Bicalutamide; [1]): > 1020 nM; AUC (Bicalutamide; [2]): 0.941; IC50 (Bicalutamide; [2]): > 10000 nM

Question: Caov-3 (ovary, adherent) was tested. Which AUC (AUY922) did it give?
Answer: 0.742

Question: And the IC50 (AUY922)?
Answer: 71.1 nM

Question: What about the AUC (LFM-A13) of the same cell line?
Answer: 0.991

Question: What about the IC50 (LFM-A13) of the same cell line?
Answer: > 16 µM

Question: What about the AUC (KIN001-270) of the same cell line?
Answer: 0.984

Question: What about the IC50 (KIN001-270) of the same cell line?
Answer: > 20 µM

Question: What about the AUC (Gemcitabine) of the same cell line?
Answer: 0.504

Question: And the IC50 (Gemcitabine)?
Answer: 65.4 nM

Question: What about the AUC (T0901317) of the same cell line?
Answer: 0.989

Question: And the IC50 (T0901317)?
Answer: > 10.2 µM

Question: What about the AUC (MP470) of the same cell line?
Answer: 0.937

Question: What about the IC50 (MP470) of the same cell line?
Answer: > 20 µM

Question: And the AUC (Bicalutamide; [1])?
Answer: 0.991

Question: What about the IC50 (Bicalutamide; [1]) of the same cell line?
Answer: > 1020 nM

Question: How did the AUC (AUY922) turn out when RMG-I (ovary, adherent) was run?
Answer: 0.847

Question: What about the IC50 (AUY922) of the same cell line?
Answer: 237 nM

Question: What about the AUC (LFM-A13) of the same cell line?
Answer: 0.982

Question: What about the IC50 (LFM-A13) of the same cell line?
Answer: > 16 µM

Question: And the AUC (KIN001-270)?
Answer: 0.978

Question: What about the IC50 (KIN001-270) of the same cell line?
Answer: > 20 µM

Question: What about the AUC (Gemcitabine) of the same cell line?
Answer: 0.979

Question: What about the IC50 (Gemcitabine) of the same cell line?
Answer: > 1020 nM

Question: What about the AUC (T0901317) of the same cell line?
Answer: 0.983

Question: And the IC50 (T0901317)?
Answer: > 10.2 µM

Question: And the AUC (MP470)?
Answer: 0.914

Question: And the IC50 (MP470)?
Answer: > 20 µM

Question: What about the AUC (Bicalutamide; [1]) of the same cell line?
Answer: 0.979

Question: What about the IC50 (Bicalutamide; [1]) of the same cell line?
Answer: > 1020 nM

Question: And the AUC (Bicalutamide; [2])?
Answer: 0.954

Question: What about the IC50 (Bicalutamide; [2]) of the same cell line?
Answer: > 10000 nM

Question: Which results are given for KYSE-180 (oesophagus, adherent)?
Answer: AUC (AUY922): 0.42; IC50 (AUY922): 9.76 nM; AUC (LFM-A13): 0.911; IC50 (LFM-A13): > 16 µM; AUC (KIN001-270): 0.98; IC50 (KIN001-270): > 20 µM; AUC (Gemcitabine): 0.295; IC50 (Gemcitabine): 17.4 nM; AUC (T0901317): 0.981; IC50 (T0901317): > 10.2 µM; AUC (MP470): 0.976; IC50 (MP470): > 20 µM; AUC (Bicalutamide; [1]): 0.987; IC50 (Bicalutamide; [1]): > 1020 nM; AUC (Bicalutamide; [2]): 0.952; IC50 (Bicalutamide; [2]): > 10000 nM

Question: For BICR31 (head and neck, adherent), which AUC (AUY922) is on record?
Answer: 0.426

Question: What about the IC50 (AUY922) of the same cell line?
Answer: 10 nM

Question: What about the AUC (LFM-A13) of the same cell line?
Answer: 0.971

Question: And the IC50 (LFM-A13)?
Answer: > 16 µM

Question: What about the AUC (KIN001-270) of the same cell line?
Answer: 0.978

Question: What about the IC50 (KIN001-270) of the same cell line?
Answer: > 20 µM

Question: And the AUC (Gemcitabine)?
Answer: 0.381

Question: What about the IC50 (Gemcitabine) of the same cell line?
Answer: 29.9 nM

Question: What about the AUC (T0901317) of the same cell line?
Answer: 0.977

Question: And the IC50 (T0901317)?
Answer: > 10.2 µM

Question: And the AUC (MP470)?
Answer: 0.974

Question: And the IC50 (MP470)?
Answer: > 20 µM

Question: What about the AUC (Bicalutamide; [1]) of the same cell line?
Answer: 0.987

Question: What about the IC50 (Bicalutamide; [1]) of the same cell line?
Answer: > 1020 nM

Question: How did the AUC (AUY922) turn out when “NCI-H2228 (lung adenocarcinoma, adherent)” was run?
Answer: 0.478

Question: What about the IC50 (AUY922) of the same cell line?
Answer: 13.5 nM

Question: And the AUC (LFM-A13)?
Answer: 0.909

Question: And the IC50 (LFM-A13)?
Answer: > 16 µM

Question: And the AUC (KIN001-270)?
Answer: 0.976

Question: And the IC50 (KIN001-270)?
Answer: > 20 µM

Question: And the AUC (Gemcitabine)?
Answer: 0.121

Question: And the IC50 (Gemcitabine)?
Answer: < 4 nM

Question: What about the AUC (T0901317) of the same cell line?
Answer: 0.931

Question: And the IC50 (T0901317)?
Answer: > 10.2 µM

Question: What about the AUC (MP470) of the same cell line?
Answer: 0.973

Question: What about the IC50 (MP470) of the same cell line?
Answer: > 20 µM

Question: And the AUC (Bicalutamide; [1])?
Answer: 0.941

Question: What about the IC50 (Bicalutamide; [1]) of the same cell line?
Answer: > 1020 nM

— the supplement of paper PMC4967469
